# Measurements reported in paper PMC6212790.
# The other results are listed elsewhere or left out. At the low end of the ranking, values are background and their order means little.
# Target: T1, GST-Rok-C97-191 (UniProt O34857)
# T1 sequence: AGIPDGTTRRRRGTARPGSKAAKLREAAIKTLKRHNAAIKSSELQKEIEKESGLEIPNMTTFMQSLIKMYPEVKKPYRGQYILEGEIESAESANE
# Assay: protein binding microarray;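 note: rank score from −0.5 (least bound) to 0.5 (best bound)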
# Details: Rok is a gene silencer of Bacillus subtilis; high values mean tight binding; most listed sequences are background and not binding sites; double strand, one strand shown
row,Sequence,binding signal
1,CACAGGGA,-0.088 E-score
2,ACATGCGC,-0.242 E-score
3,GTTATTCA,0.014 E-score
4,CAAAACAA,-0.0275 E-score
5,AACGTCCG,-0.13 E-score
6,GATGTTGC,-0.123 E-score
7,TAACGTGA,0.0636 E-score
8,TGCAGGCA,-0.177 E-score
9,CAAAACAG,0.067 E-score
10,GATTCCCA,0.00937 E-score
11,AGGCGCTG,-0.169 E-score
12,GGGAGTTA,-0.0419 E-score
13,GATAGCTA,0.367 E-score
14,AGACAATG,0.00834 E-score
15,AGGTAGTG,-0.0194 E-score
16,AGGCCCGC,-0.197 E-score
17,GTAGAGAC,0.164 E-score
18,GCTAGCGA,-0.0168 E-score
19,GTATAGTA,0.25 E-score
20,AGGTTCAT,-0.153 E-score
21,ACCCGGTA,0.254 E-score
22,AGTGGATC,-0.0369 E-score
23,GGGATATA,0.233 E-score
24,ACAGTCTC,-0.113 E-score
25,CACGATTC,-0.05 E-score

row,Sequence,binding signal
1,TTTACAAA,0.212 E-score
2,ATTTATTG,0.2 E-score
3,AGTTCTTC,-0.0494 E-score
4,TCGCAACA,-0.0722 E-score
5,CTGCGGAA,-0.125 E-score
6,CCAGAGAG,-0.143 E-score
7,GACGTTAC,0.0544 E-score
8,GATGTACC,0.118 E-score
9,TGTTCTAA,0.0945 E-score
10,CGTCTTAG,-0.159 E-score
11,ATTTAACG,0.173 E-score
12,CACTCTGA,-0.177 E-score
13,AACATCCT,0.0847 E-score
14,TAGCGACA,-0.0369 E-score
15,CCGCGAAC,0.101 E-score
16,TAAGACTA,0.0426 E-score
17,AGCGCACT,-0.0109 E-score
18,ATGTAATC,0.101 E-score
19,GGGACCAA,-0.294 E-score
20,CCACCGGC,-0.195 E-score
21,TAGTTACA,0.292 E-score
22,CCCGGCAC,-0.0752 E-score
23,CACTAACA,0.114 E-score
24,CACGAGAA,-0.178 E-score
25,GACCGATC,-0.12 E-score

row,Sequence,binding signal
1,AAGATGCT,-0.0226 E-score
2,TAACAAAA,0.19 E-score
3,GATGATAC,-0.0732 E-score
4,CCAAGTCC,-0.133 E-score
5,ACTGACAG,0.0188 E-score
6,CCGCCTCC,-0.322 E-score
7,CATGCCGG,-0.227 E-score
8,CATAAACC,0.138 E-score
9,AGTTTTTG,0.161 E-score
10,ACCGAACT,0.0541 E-score
11,CATCTATA,0.201 E-score
12,AACAAGTC,-0.0355 E-score
13,GAGAGCCC,-0.356 E-score
14,CACATAGC,0.0478 E-score
15,AGATCGTG,-0.102 E-score
16,CCAGACAG,-0.328 E-score
17,GATGCAAC,-0.12 E-score
18,CGATATGA,-0.0464 E-score
19,ACCAGTGC,-0.104 E-score
20,ATTCTTGA,0.0728 E-score
21,AAGGAAGG,-0.243 E-score
22,CAACATAG,0.0825 E-score
23,CACGTTAC,0.168 E-score
24,ACCTATCC,0.0672 E-score
25,ATTCTATA,0.224 E-score

row,Sequence,binding signal
1,ACGCCACA,-0.118 E-score
2,CTGTACAC,-0.0793 E-score
3,CTCTCGCC,-0.229 E-score
4,ATCCGAGA,0.175 E-score
5,GCCAGCCC,-0.233 E-score
6,ACCGAAGG,-0.0855 E-score
7,CCATCATA,0.137 E-score
8,AATTTAAC,0.313 E-score
9,AAATAGTC,0.049 E-score
10,CAAAACCG,-0.162 E-score
11,ACTCGCCA,-0.101 E-score
12,GCCCGGTA,-0.225 E-score
13,AAGATGTA,0.193 E-score
14,GTAGGATA,0.122 E-score
15,AGTGCTAC,0.179 E-score
16,ATTCCCCC,-0.222 E-score
17,TGTGCACA,0.0256 E-score
18,CCTTGTAA,0.0551 E-score
19,TGACCCCA,-0.313 E-score
20,CTACAGAG,0.0148 E-score
21,CTAGTGAG,0.0621 E-score
22,CAGGCATC,-0.0851 E-score
23,ATGGGATA,0.257 E-score
24,ATCGAGGG,0.0393 E-score
25,GAGATATA,0.301 E-score

row,Sequence,binding signal
1,AGCCAACT,0.0439 E-score
2,ACTCGTTA,0.225 E-score
3,CAGACGAA,-0.0248 E-score
4,GAACAACA,-0.209 E-score
5,GCCGGAGA,-0.0719 E-score
6,CCGCAAAC,-0.209 E-score
7,GCATTTCA,0.0946 E-score
8,CCGTAACC,0.0227 E-score
9,TGCTATAA,0.312 E-score
10,AAGCTGCT,-0.00165 E-score
11,ACCCTCTG,-0.172 E-score
12,CAGGCTCC,-0.243 E-score
13,AACTTGAC,0.11 E-score
14,CGGGGATC,-0.215 E-score
15,GCAAAGAA,0.0898 E-score
16,CACACCGA,0.0716 E-score
17,CGACGATC,-0.192 E-score
18,AACCAGGG,-0.181 E-score
19,ATACGGGA,0.0102 E-score
20,CGAGTGTC,-0.0337 E-score
21,TAGACCCA,0.00211 E-score
22,AGACAAGC,-0.168 E-score
23,AGTTCGGA,0.173 E-score
24,TCCAATCA,-0.117 E-score
25,AACGCCCC,-0.377 E-score

row,Sequence,binding signal
1,AAGTGACG,0.155 E-score
2,AGACTAAG,0.0462 E-score
3,AGGCGCCT,-0.263 E-score
4,AACTTTTG,0.0934 E-score
5,CCGCGTAG,-0.103 E-score
6,CAAGTTAG,0.158 E-score
7,AATACTGC,0.171 E-score
8,CATGTTAG,0.0269 E-score
9,AAGTTTCG,0.206 E-score
10,CCTTACAG,0.14 E-score
11,ACTGCCAG,-0.198 E-score
12,ATGAGGCA,-0.213 E-score
13,AGGTACAA,0.0985 E-score
14,CATAACCA,0.0637 E-score
15,ATTGGAAC,-0.0509 E-score
16,GAACTATC,0.261 E-score
17,GAGACCAC,-0.222 E-score
18,ATGAACTA,0.0301 E-score
19,CTGTAGCC,-0.184 E-score
20,ATCGAATA,0.254 E-score
21,CAAGATTG,-0.223 E-score
22,CAGGCCTA,-0.128 E-score
23,CCGTGAGA,-0.0715 E-score
24,ATTAGACA,0.11 E-score
25,AGGCGTCC,-0.159 E-score

row,Sequence,binding signal
1,GTATGGGA,-0.0116 E-score
2,CAAACGGC,-0.0245 E-score
3,TGGGGCAA,-0.15 E-score
4,CGCATGGA,-0.108 E-score
5,AAAACTCC,0.137 E-score
6,AATCATAA,0.0596 E-score
7,TACGTACA,0.29 E-score
8,CAGTAGAA,0.426 E-score
9,CAATTGTA,0.251 E-score
10,ACTCCCCA,-0.38 E-score
11,AGGGGGTA,-0.196 E-score
12,ATGCAGTA,0.297 E-score
13,CGCTACAA,0.104 E-score
14,CCGTATCC,-0.127 E-score
15,CCGCAGGC,-0.204 E-score
16,GACCAAAC,-0.18 E-score
17,AGCCATCC,-0.0947 E-score
18,AAAGTGCT,-0.0434 E-score
19,CCTCCAGG,-0.193 E-score
20,ACTAATGC,0.262 E-score
21,GTCGAATA,0.168 E-score
22,ATGATTAA,0.00647 E-score
